# In all, about 310,000 compounds went through this assay and about 14,000 (4.5%) showed an effect of 50% or more. The effect is printed as a negative number. Some of the results follow.
# Biological target: human ether-à-go-go-related gene (hERG) potassium channel (human, UniProt Q12809)
# Assay: primary screen, population patch clamp on CHO cells stably expressing hERG
# 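Note: peak tail current of the secondary pulse compared with the same well before compound.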
# Chain of human ether-à-go-go-related gene (hERG) potassium channel (Q12809 whole entry, looked up): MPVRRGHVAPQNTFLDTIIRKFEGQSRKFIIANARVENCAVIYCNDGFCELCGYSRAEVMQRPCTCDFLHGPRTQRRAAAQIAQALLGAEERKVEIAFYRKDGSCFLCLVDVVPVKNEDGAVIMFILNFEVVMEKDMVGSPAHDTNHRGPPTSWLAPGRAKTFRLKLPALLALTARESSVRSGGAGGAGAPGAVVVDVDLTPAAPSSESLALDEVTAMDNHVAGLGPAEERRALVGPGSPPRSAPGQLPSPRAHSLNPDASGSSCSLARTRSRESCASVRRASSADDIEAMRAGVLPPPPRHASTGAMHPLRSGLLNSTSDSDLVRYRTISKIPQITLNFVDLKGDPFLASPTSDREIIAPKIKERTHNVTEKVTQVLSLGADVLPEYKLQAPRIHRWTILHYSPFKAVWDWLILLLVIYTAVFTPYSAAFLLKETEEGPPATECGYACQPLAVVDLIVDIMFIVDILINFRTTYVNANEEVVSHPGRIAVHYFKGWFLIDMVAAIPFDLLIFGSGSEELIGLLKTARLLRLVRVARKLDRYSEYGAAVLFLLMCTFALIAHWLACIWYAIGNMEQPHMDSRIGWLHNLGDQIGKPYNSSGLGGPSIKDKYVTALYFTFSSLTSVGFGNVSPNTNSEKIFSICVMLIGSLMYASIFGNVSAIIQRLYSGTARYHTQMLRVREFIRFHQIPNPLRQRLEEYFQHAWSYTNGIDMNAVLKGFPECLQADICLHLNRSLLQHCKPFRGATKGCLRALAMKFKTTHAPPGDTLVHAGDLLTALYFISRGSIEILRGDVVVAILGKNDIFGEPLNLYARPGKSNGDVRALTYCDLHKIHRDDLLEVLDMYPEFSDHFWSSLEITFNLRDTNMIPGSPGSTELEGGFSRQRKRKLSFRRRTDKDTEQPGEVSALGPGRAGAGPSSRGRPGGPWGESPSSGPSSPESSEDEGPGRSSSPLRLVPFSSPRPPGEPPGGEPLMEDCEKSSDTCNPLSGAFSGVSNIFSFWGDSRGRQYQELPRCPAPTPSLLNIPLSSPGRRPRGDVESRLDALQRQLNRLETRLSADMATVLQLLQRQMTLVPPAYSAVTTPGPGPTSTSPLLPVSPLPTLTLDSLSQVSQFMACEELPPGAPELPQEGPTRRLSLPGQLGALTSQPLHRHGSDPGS
row,Structure (SMILES),"hERG current change (%, negative = inhibition) at 10uM [%]"
1,C=CCN(CC=C)C(=O)Cc1ccc(F)cc1,16.1
2,COc1ccccc1N1C(=O)C2ON(c3ccccc3)C(c3ccc(N(C)C)cc3)C2C1=O (stereo not drawn),13.4
3,Cn1cnc2c1c(=O)n(Cc1ccccc1C#N)c(=O)n2C,23
4,CCCc1cc(=O)[nH]c(SCC(=O)c2[nH]c(C)c(C(=O)OCC)c2C)n1,-25
5,CNCC(C)c1ccccc1.Cl (stereo not drawn),22.2
6,N/C(Cc1ccc([N+](=O)[O-])cc1)=N\OC(=O)c1ccccc1F,-35.6
7,Cc1ccc(-c2nn(-c3ccccc3)cc2C(=O)NC2CCC(O)CC2)cc1 (stereo not drawn),-9.21
8,S=C(NCc1ccco1)Nc1ccccn1,0.917
9,Cc1ccc(OCc2cc(C(=O)N3CCC(C(O)C(C)C)CC3)no2)cc1C (stereo not drawn),-23.1
10,COCC(=O)N(CCc1ccc(OC)c(OC)c1)Cc1nc2ccccc2c(=O)[nH]1,-8.28
11,O=C(c1ccco1)N1CCN(C(=O)C2CCCN(S(=O)(=O)Cc3ccccc3)C2)CC1 (stereo not drawn),-35.4
12,Cc1ccc(NC(=O)c2sc(N)nc2C)cc1,14.8
13,Cc1ccc(C)c(NS(=O)(=O)c2ccc(OCC(=O)NCc3ccco3)cc2)c1,10.3
14,CN1C(=O)COc2ccc(C(=O)c3ccccc3C(=O)O)cc21,11
15,N#Cc1ccsc1NC(=O)CN1CCOCC1,16.3
16,Cc1ccc(S(=O)(=O)N/N=C/c2c[nH]c3ccccc23)cc1,-5.38
17,CCOC(=O)c1cc2c(C(F)(F)F)cc(-c3ccccc3)nc2o1,12.8
18,O=C(NCc1ccccc1)c1ccc(-c2ccc(F)cc2)o1,1.02
19,Cc1ccc(C2(C)NC(=O)N(CC(=O)N3CCN(C(=O)c4cccs4)CC3)C2=O)cc1 (stereo not drawn),-12.3
20,CCn1c(=N)c(S(=O)(=O)c2ccc(Cl)cc2)cc2c(=O)n3ccccc3nc21,12.7
21,O=C(CN1CC[n+]2c(-c3cccs3)csc21)c1ccc(Br)cc1.[Br-],-45.9
22,COc1ccc(NS(=O)(=O)c2ccc3oc(=O)c4[nH]c(=O)c(=O)n(C)c4c3c2)cc1,15.8

row,Structure (SMILES),"hERG current change (%, negative = inhibition) at 10uM [%]"
1,COc1ccc(NC(=O)C(CCSC)N2C(=O)c3ccccc3C2=O)cc1 (stereo not drawn),-10.3
2,O=C(COC(=O)CNC(=O)c1sc2ccccc2c1Cl)Nc1cc(Cl)cc(Cl)c1,-54.7
3,O=C(CCCn1c(=O)c2ccccc2n(CC(=O)N2CCN(c3ccccc3)CC2)c1=O)NCc1ccco1,-10.2
4,c1ccc2oc(CCc3nc4ccccc4o3)nc2c1,-1.56
5,CS(=O)(=O)N(CC(=O)Nc1ccccc1C(=O)N1CCCC1)c1ccccc1Br,-2.32
6,CC(=O)OC(C(=O)N1CCN(c2ccccc2F)CC1)c1ccccc1 (stereo not drawn),-22.3
7,O=C(Nc1cc([N+](=O)[O-])ccc1O)c1cccc([N+](=O)[O-])c1,19.1
8,O=C(O)CCc1ccc(-c2cccs2)n1CC(=O)Nc1ccccc1C(F)(F)F,22.8
9,O=C(CNS(=O)(=O)c1ccccc1)N1CCc2ccccc2C1,4.71
10,O=C(C[n+]1cccc(CNC(=O)c2ccc(OC(F)F)cc2)c1)Nc1cccc(C(F)(F)F)c1.[Cl-],-9.62
11,CCOc1cccc(C(=O)N(Cc2ccco2)C2CCS(=O)(=O)C2)c1 (stereo not drawn),-7.48
12,COc1ccc(NC(=O)CCn2c(=O)c3cccn3c3ccccc32)c(OC)c1,8.41
13,Cc1c(C(=O)Nc2cccc(-c3nnc4n3CCCCC4)c2)oc2ccccc12,-4.57
14,CC(C)(C)NC(=O)CSc1nc2ccccc2c(=O)[nH]1,11.7
15,CCC(=O)Nc1ccc2c(c1)nc(CCN1CCCCC1)n2C,7.26
16,Cc1sc2ncn(CC(=O)NCc3ccccn3)c(=O)c2c1S(=O)(=O)N1CCOCC1,3.16
17,COc1ccc(N(CC(=O)O)S(C)(=O)=O)cc1OC,1.3
18,COc1cccc(CNC(=O)C2CC(=O)N(C3CCCCCCC3)C2)c1 (stereo not drawn),9.91
19,CC12COC3(C(=O)Nc4nccs4)CC1CCC32C (stereo not drawn),0.557
20,Cc1ccc(NC(=O)Cn2cc3c(n2)CCC(C)C3)cc1 (stereo not drawn),7.73
21,CCOC(=O)C1=C(C)N=C2SC(C)C(=O)N2C1c1cccc(F)c1 (stereo not drawn),-3.16
22,CCOC(=O)C1=C(C)N=C2SCCC(=O)N2C1c1cccs1 (stereo not drawn),-10.2

row,Structure (SMILES),"hERG current change (%, negative = inhibition) at 10uM [%]"
1,CN(C)S(=O)(=O)c1ccc(C(=O)NCC(c2cccs2)N2CCOCC2)cc1 (stereo not drawn),1.61
2,COc1ccc(-c2cc(C(F)(F)F)n3ncc(C(=O)NCC4CCCO4)c3n2)cc1OC (stereo not drawn),5.6
3,COc1ccc(Cc2n[nH]c(=S)n(N)c2=O)cc1,13.6
4,N#C/C(=C(/O)c1ccccc1F)c1nc2cc(C(F)(F)F)ccc2s1,20.8
5,Clc1ccc(CO/N=C2\CCCc3nonc32)c(Cl)c1,-10.1
6,O=C(CN1C(=O)C2CCCCC2C1=O)N1CCN(c2ncccn2)CC1 (stereo not drawn),4.17
7,Cn1c(CNC(=O)c2ccccc2F)nnc1SCCOc1ccccc1,7.07
8,COCCN(Cc1ccccc1)C(=O)c1ccc2c(c1)NC(=O)CS2,-8.25
9,COc1cc(Cl)c(CN2CCCC(CO)(Cc3ccccc3F)C2)cc1OC (stereo not drawn),-20.1
10,CC1CC(C)CN(C(=O)COC(=O)C2CCN(S(=O)(=O)c3ccc4c(c3)OCCO4)CC2)C1 (stereo not drawn),-12.5
11,CN=C1S/C(=C\c2cc(C)n(-c3ccccc3F)c2C)C(=O)N1C,5.55
12,CCN(CC)C(CNS(=O)(=O)c1ccc(Cl)cc1)c1ccccc1 (stereo not drawn),-17.9
13,COC(=O)C1=C(c2c(C)noc2C)C[C@@H]2CC[C@H]1N2C(=O)NCCCOC(C)C,-12.2
14,Cc1ccc(CNC(=O)c2cccnc2Sc2cccc(Cl)c2)cc1,4.46
15,Cc1ccc(N(CC(=O)N2CCCC2)S(C)(=O)=O)c(C)c1,19.6
16,Cn1c(-c2cccc([N+](=O)[O-])c2)cnc1NCc1ccc(C#N)cc1.O=C(O)C(=O)O,-75
17,CN(C)CC(C)(C)CNC(=O)c1cc(=O)c2ccccc2o1.Cl,19.6
18,N#CCCn1nc(-c2ccc([N+](=O)[O-])cc2)cc1Nc1ccccc1NC(=O)C(F)(F)F,-20.1
19,COc1cccc(C2=NOC(C(=O)Nc3cc(OC)c(OC)c(OC)c3)C2)c1 (stereo not drawn),-0.496
20,S=C1NC[C@H](c2ccccc2)N1CC1CCCCC1,-5.45
21,COc1ccc(OC)c(CC(NC(C)=O)C(=O)NC2CCN(c3cc(C)nc4ncnn34)CC2)c1 (stereo not drawn),45.1
22,O=C(NC(=O)C(F)(F)F)Nc1ccc(S(=O)(=O)Nc2nccs2)cc1,14.3

row,Structure (SMILES),"hERG current change (%, negative = inhibition) at 10uM [%]"
1,COc1ccccc1CCNC(=O)CSc1nc(-c2ccco2)cc(C(F)(F)F)n1,27.1
2,O=C(NCC1CCCN(C(=O)NCc2ccccc2)C1)c1ccc2c(c1)OCO2 (stereo not drawn),1.32
3,CC(=O)COc1ncnc2c(Cl)cc(Cl)cc12,17.6
4,COc1cc(CNCCNC(=O)c2nonc2N)ccc1OCc1ccc(Cl)nc1.Cl,-56.4
5,CCN(Cc1ccccc1)C(=O)c1ccc(CNS(=O)(=O)c2ccc(C)cc2)cc1,-10.3
6,CC1CCN(c2oc(-c3ccco3)nc2S(=O)(=O)c2ccccc2)CC1,-6.14
7,CCN(CC)CCNC(=O)c1ccc(NC(=O)c2cc(S(=O)(=O)N3CCCCC3)ccc2C)cc1,14.8
8,CC(=NCCc1ccccc1)c1c(O)n(C)c(=O)n(C)c1=O,1.46
9,Cn1cc(CCNC(=O)CCc2nnc(CCCCc3ccccc3)o2)cn1,0.976
10,CC(C)CC(=O)Nc1ccccc1-c1nnn(CC(=O)N2CCOCC2)n1,-2.78
11,CCc1ccc(NC(=O)c2ccccc2Br)cc1,-11.2
12,O=[N+]([O-])c1ccccc1S(=O)(=O)Nc1ccc(S(=O)(=O)Nc2nccs2)cc1,-5.3
13,O=S(Cc1ccc(Br)cc1)Cc1nnc(SCc2c(Cl)cccc2Cl)n1-c1ccccc1 (stereo not drawn),-21.5
14,CCS(=O)(=O)NCCc1cc2ccc(C)cc2[nH]c1=O,-21.5
15,NC(=O)OCC(O)COc1ccc(Cl)cc1 (stereo not drawn),9.97
16,O=P(O)(O)CP(=O)(O)O,-1.68
17,COc1ccc2c(C)c(C(=O)NCC(C)O)oc2c1OC (stereo not drawn),11.6
18,Fc1cc(F)cc(-c2oncc2-c2nnnn2-c2ccccc2)c1,12
19,CCCC1(c2ccccc2)NC(=O)N(CC(=O)Nc2cc(C)ccc2OC)C1=O (stereo not drawn),-0.981
20,C=CCn1c(SC(CCO)C(=O)NCc2ccco2)nc2sc3c(c2c1=O)CCC3 (stereo not drawn),-23.3
21,CCOc1ccc(CCNC(=O)Cn2nc(C)c3c(C)n(-c4ccccc4)nc3c2=O)cc1OCC,4.66
